In all, about 33,000 sequences were measured (“E-score (-0.5 to 0.5)”: median about -0.035, highest 2% from about 0.35 on). The list shows a part of the results.
The sequences below were run against T1, Pdr3 (UniProt P33200) (assay: PBM E-score (8-mer binding enrichment) (E-score (-0.5 to 0.5)); higher = stronger / more preferred TF binding; most listed sequences are background and not binding sites). Details: protein concentration: 200 nM; construct: GST-full length.
T1 sequence: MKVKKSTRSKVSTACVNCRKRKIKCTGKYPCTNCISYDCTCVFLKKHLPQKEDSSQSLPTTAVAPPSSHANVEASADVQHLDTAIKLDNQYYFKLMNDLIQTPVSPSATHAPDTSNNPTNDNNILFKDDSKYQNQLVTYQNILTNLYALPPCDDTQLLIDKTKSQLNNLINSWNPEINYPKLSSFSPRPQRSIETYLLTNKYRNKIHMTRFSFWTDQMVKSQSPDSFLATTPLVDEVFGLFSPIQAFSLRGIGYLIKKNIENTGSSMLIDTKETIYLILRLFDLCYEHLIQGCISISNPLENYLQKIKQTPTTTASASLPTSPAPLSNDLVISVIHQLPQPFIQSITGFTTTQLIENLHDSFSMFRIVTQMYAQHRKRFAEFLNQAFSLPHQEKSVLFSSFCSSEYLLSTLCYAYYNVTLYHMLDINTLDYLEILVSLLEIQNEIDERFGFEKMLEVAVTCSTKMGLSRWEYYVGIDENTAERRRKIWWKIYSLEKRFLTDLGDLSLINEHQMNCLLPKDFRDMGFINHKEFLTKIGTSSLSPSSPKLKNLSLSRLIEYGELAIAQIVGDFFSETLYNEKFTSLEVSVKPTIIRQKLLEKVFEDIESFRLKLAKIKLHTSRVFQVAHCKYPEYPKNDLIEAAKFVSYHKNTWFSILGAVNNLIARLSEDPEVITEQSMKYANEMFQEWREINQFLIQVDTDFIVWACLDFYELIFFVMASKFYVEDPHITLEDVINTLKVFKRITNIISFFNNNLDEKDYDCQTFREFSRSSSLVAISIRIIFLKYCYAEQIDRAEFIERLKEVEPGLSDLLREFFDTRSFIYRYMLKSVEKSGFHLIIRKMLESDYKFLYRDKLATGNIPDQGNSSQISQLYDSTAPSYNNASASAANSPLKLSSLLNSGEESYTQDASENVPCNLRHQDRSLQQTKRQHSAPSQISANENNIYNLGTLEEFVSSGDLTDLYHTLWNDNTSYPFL
Procedure, shortened: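 Full-length yeast transcription factors or their DNA-binding domains, GST-tagged and expressed with PURExpress, were applied at about 100-200 nM to universal all-10-mer Agilent arrays. These arrays had been made double-stranded by primer extension on fresh or once-stripped slides. Detection used fluorescent anti-GST, normalisation used masliner, and E-scores for ungapped eight-base words pooled with reverse complements came from the Universal PBM Analysis Suite.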

Sequence	PBM E-score
AACAACAC	0.0662
AAGAGACT	-0.235
CCATTCGG	0.0853
CTCGGTAA	0.0593
AGATATCT	-0.188
AGATGGGC	0.0798
TAGTAATA	0.0153
ACTACCAT	-0.178
ACTAGGGA	-0.253
AAGCTTAT	-0.0146
CGAACCCG	0.261
CAATAGGA	-0.247
ACAAACGC	0.072
ACGCCGAA	0.105
CGAAACCA	0.0232
ACCGATAT	-0.0494
CATCAATA	-0.149
AACATTAC	-0.0261
ATACTACG	-0.00304
CAGCCATC	-0.0801
AGCGGGCG	0.0229
CAGGTCGG	-0.0196

Sequence	PBM E-score
ACCACTTA	-0.0715
GCAGGAGA	-0.0103
CTATCCGC	0.325
GACCCAGC	-0.219
CTTATTGA	-0.156
AATTAAAC	-0.00772
CAAAGTAC	-0.21
CACGAATA	-0.172
AGGCTTAG	-0.0695
GCAAGGAA	0.133
ACCCGTAT	0.0405
GCGTCTAC	-0.0787
AGATTCTA	-0.117
ATACATTG	-0.0766
ATGTAGGC	0.014
AGGCAACA	-0.129
AGGCGGAA	0.35
GGGCGGTA	0.195
TCGCACAA	-0.0677
TCGCTGAA	-0.0568
ATAAGTGG	-0.119
AACGTGCG	0.0349

Sequence	PBM E-score
CTACTTCA	-0.0398
CGCACCAC	0.119
CGAATTAG	0.0927
GCGGACTA	0.274
CACCTTCG	0.0557
GGGTATAC	-0.0104
ACCAGGAT	0.0428
CCTCCGGC	0.32
CTATATGA	-0.0848
TCCTGACA	-0.138
ACACCAAT	0.0269
ATTATAGG	-0.00934
AAACCAAC	0.00216
CAAGTGCA	-0.364
ATCGTATA	0.0981
AATTACAC	0.0166
GCAATTAC	0.0239
TAATCAAA	0.17
AAACCTAT	-0.169
CAATAAGG	-0.238
ACTGACCA	-0.242
ATGGCGGC	0.14

Sequence	PBM E-score
CCTCTACG	-0.233
GCAGATCA	-0.197
AAGGCAGG	-0.123
AACGTGAG	-0.166
CAGCCAAC	0.0126
CTATATAA	-0.168
AATATTCT	0.0456
CAGAACTG	0.136
AGCGGTAT	0.0555
CGGACCCA	0.302
ATTCCTAG	-0.106
ACGGCTTG	-0.00111
CGGTGTGC	-0.0493
ACTGTACA	-0.322
TAAAAAAA	-0.0786
GGTTGAGA	0.152
TATCTGGA	-0.174
ACTTCTAC	-0.0464
CGCCGACA	0.0423
CACGCCGC	0.0606
